Assay results: the supplement of paper PMC11417369
This is one part of the list.

tested on: PfSIP2 AP2 domain 1 (GST-tagged); assay: gcPBM binding intensity (ln(normalized median fluorescence intensity)); higher = stronger DNA binding
Outline: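 GST-tagged P. falciparum DNA-binding domains, expressed in E. coli (about 25 μg on average), were applied for 1 h to an Agilent 4 × 180k array of primer-extended double-stranded 36-bp intergenic genomic probes plus negative controls. The binding buffer was 1× PBS with 1% milk, 0.2 mg/ml BSA, 0.5% salmon testes DNA and 0.03% Triton X-100. Bound protein was detected with Alexa488 anti-GST antibody and scanned at 488 nm. Binding intensity is the highest Masliner-normalised natural-log median intensity across replicate spots of either probe orientation.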

| Sequence | gcPBM binding intensity (ln) |
| --- | --- |
| ATATATATATATATATGTACACATTAATGTTTTTTT [XGTACX_site167] | 10 |
| TTATTTTTTATTATGTGTACATAACATCGCGATACA [XGTACX_site4359] | 7.13 |
| AAAACTTGTCAGAATGGACACACGAATTAAAGGCCT [CACACA_site1215] | 6.51 |
| CAACATTCGTATATCACACATTTGCATGTTGTCAAT [CACACA_site4470] | 6.83 |
| GATTTAGTTATTTAAACATGCAATTTATATAGAATT [TGCATGCA_site47] | 7.06 |
| TATTTATACATACATACACACATATAGATTTATATT [CACACA_site7851] | 7.09 |
| TATGTCAAATATATATGTACACAAATATACTATTAA [XGTACX_site2643] | 7.08 |
| AATATATATATTAGAGTGCACATAATTATTTGCTAA | 10 |
| ATAATCACAAATAATTGTACATTTTGTTATATATAT [XGTACX_site7704] | 7.5 |
| TGATATATATATATATATATAACACACGCAAAAAAA [TGCATGCA_negctrl_site240] | 7.51 |
| AAAAATTTCATATTCACACACAAAAAAAAAAAATAT [CACACA_site1592] | 7 |
| TTTTTAATTTATTGTGTGCACACAACTATGAGTTTT | 8.08 |
| ATATGATATATATTCGGTACACATATATATAAAGAG [XGTACX_site430] | 7.38 |
| ATTTAAATAATATTCACACACAAAATTATATTTTAA [CACACA_site219] | 6.99 |
| AAGTTTTCTTAAAATTGTACTTTTCAAAAATAATCT [XGTACX_site277] | 6.65 |
| ATTATTATATATGTATGTACTTATATAATATATATA [XGTACX_site5198] | 7.5 |
| TATATATTGTTATATACACACATGTATTTAAAAAAT [CACACA_site5737] | 6.91 |
| TTAACAAAACATAAGGTGCTTAAAATTTTATATCAC [GTGCAC_site9839] | 7.96 |
| TCTGTTAAACAAAAAAGTACTAAAATAATGTAAAAT [XGTACX_site6826] | 7.19 |
| TACCTATATAGACACACACACATATATTTATTTATA [CACACA_site6728] | 7.27 |
| ATATGTACAAGTGTTTATGCTGAACGGAAATCCTGT [CACACA_negctrl_site1372] | 6.9 |
| TTATATGGATATACAGTGCATATATACATATAAGTG | 8.77 |
| AATATATATACTATAACACACATACACCCAAAAAAA [CACACA_site4453] | 7.15 |

| Sequence | gcPBM binding intensity (ln) |
| --- | --- |
| CATACCTTTTAATGTACACACATTTCTTTTTTGTTA [CACACA_site892] | 7.23 |
| AAAAAAAAAAGAAACACACACATATATATATAGAAT [CACACA_site1777] | 7.03 |
| ATGTATTAAAATTTATGTACTTATATATAAATATAT [XGTACX_site1025] | 7.14 |
| TATATGTATTTGTATACACACAAATGTATATATTTA [CACACA_site1265] | 6.78 |
| TATAAACATAATATTTAACACACATGAAGATGTATA [CACACA_site8252] | 6.9 |
| TACATATATTATACATGTACACATTTATACATATCG [XGTACX_site2866] | 7.18 |
| ATATGATCATACTGTGCATGTTAATGCAAATTTTAT [TGCATGCA_site984] | 7.44 |
| TTTTTTTTTATATAAAAAAAAATTTTTATTATTTTA [GTGCAC_negctrl_site347] | 6.5 |
| CGCACAGACGGACACACACACACATATATATATATA [CACACA_site5249] | 9.48 |
| ATAATTGTCCATTTTTTCTTTTTTTTTTTCTTTTTA [CACACA_negctrl_site928] | 6.65 |
| TTCTCCTAATAGTTAGTGCACTACATAACTAAGAAA | 10.8 |
| AAAAAAAAAAAAAAAACACACATTTAGCAATCTACA [CACACA_site3706] | 7.71 |
| ATGATACTAAAAAATTGTACATATAACAAAAGGTAT [XGTACX_site2527] | 7.14 |
| CATATATTTTGAAACACACACATATATAATATACAT [CACACA_site1158] | 7.16 |
| TTTGTATAATACATGTGTACGTATTTTTATATAAAT [XGTACX_site8656] | 7.33 |
| TTATCATTATATAGTTGTACATATTTATTTATAAAA [XGTACX_site2310] | 7.26 |
| AGAACTAAAAGAACATGTACATAAATTCTAAATAAT [XGTACX_site4084] | 6.9 |
| TATTTTGTTTTAAAAGTACACACTTTTAATTAGATT [CACACA_site1180] | 7.48 |
| ATAACAAAATGAAGAGTGCATTACCAAGTGGGTAAA [GTGCAC_site9450] | 8.64 |
| ATATTTAAGGCGTGTATGCACACGACTATTCCGTAT [CACACA_site1080] | 6.96 |
| TTAATTTGTTCTTACACACACATATAAATATATTTA [CACACA_site6676] | 7.11 |
| ATAAACATGGAAATGTATTAAAAGCAAGTATATAAA [XGTACX_negctrl_site516] | 7.03 |
| TGTTGTTACAGATATACACACATATATATATTATAT [CACACA_site5342] | 7.26 |

| Sequence | gcPBM binding intensity (ln) |
| --- | --- |
| TTGGGTGCATATATTTGTACACATTATTTCTATTTT [XGTACX_site3688] | 12 |
| TAAATTATAACGTGCACACATATTTAAAATGAAATG [CACACA_site2820] | 10.3 |
| AAAAAAAATTTCTTCACACATAAATAAATAAATAAA [CACACA_site4841] | 7.01 |
| TGCATTTATATCTTCACACATATATATATATATATA [CACACA_site4516] | 9.14 |
| ATTAAAAATTCAATTGCACACGCACATATTTTAATA [CACACA_site8618] | 7.04 |
| ATGTAATAAAATAATTGTACAATGTAACTAATTTTT [XGTACX_site2871] | 6.95 |
| ATATGTATATATACATGTACATATTTTTCCTTTCTT [XGTACX_site149] | 6.94 |
| ACATAAATAAATTAATGTACATATATATTTGTATAT [XGTACX_site3160] | 7.1 |
| TATATATATATATATACACACACACCCATATATATA [CACACA_site8812] | 9.59 |
| TTTTTTTTTTTTTCAAGTACATATATATATATATAA [XGTACX_site2098] | 7.58 |
| TTTTTATATGTTAAGTGTACGTTTACATTTTATACT [XGTACX_site3485] | 7.06 |
| TATACATACATTAGACGTACACATTTTACCTACACC [XGTACX_site3586] | 7.86 |
| TTTTTTGTATTTTTCACACACACATAAGTAAACAAT [CACACA_site1900] | 7.25 |
| TATTATGTATGTATATGTACGTATCTTATTTTATTT [XGTACX_site5008] | 6.99 |
| AAATTATTATATATATGTACGTATAATGTATTTTGT [XGTACX_site2903] | 7.08 |
| AAATATAGAATACATGTGCACATAATATATATATAT | 9.21 |
| AATACAATTTATAACACACACACAAGAATACCTATA [CACACA_site6705] | 7.02 |
| TCTTTTTAAGGGATTTTTTTTTTTTTTTTAAAAAGA [CACACA_negctrl_site1274] | 6.65 |
| TTTGTATCTATATATTGTACGAATTACTTTCATTTA [XGTACX_site4785] | 6.8 |
| AAATGTAAATTTATCCGTACATATATATATTTATAT [XGTACX_site7024] | 7.01 |
| AAAAAAAAAAAAATATATATATATATATATATATAT [GTGCAC_negctrl_site212] | 9.48 |
| AAAAAAAAAAATTAAAGTACAAAAATATTAAAAATA [XGTACX_site6517] | 6.8 |
| ATTTTTTTTATGTATTATGCTTTTATATCCTTCATA [CACACA_negctrl_site1244] | 7.19 |

| Sequence | gcPBM binding intensity (ln) |
| --- | --- |
| ATTTCTTTTACATTTACATGCAATGCTCTATAGATA [TGCATGCA_site62] | 7.34 |
| AAAGAATTTGCATATACACACAAAAAAATAAATACA [CACACA_site4373] | 7.03 |
| ATATATATATACATATGTACATATATATTTATACAT [XGTACX_site2463] | 8.45 |
| TACACAGACGGACACACACACACACTAGAAAAAAAA [CACACA_site4435] | 7.34 |
| AATATAATATAATGCACACATAAAAAAAAAAAAATC [CACACA_site1303] | 7.43 |
| AATGCACTATTTAAAAGTACACATAAGAAAAGCATA [XGTACX_site1739] | 8.82 |
| GCTAAACAATAGTTTGCACACAATTTAAATATATAT [CACACA_site193] | 7.15 |
| AGTATAAATATATTATGTACATATATATTATACTTA [XGTACX_site2623] | 6.98 |
| TTATATACATTAAATGAACACACATAAATAAATTAC [CACACA_site8927] | 6.97 |
| AAAAAAAAAAAAAACACACACACACGCAGATATATA [CACACA_site6672] | 7.49 |
| TTTATTCTCCACACCCGTACACATTTTTTTTGCATA [XGTACX_site5615] | 7.39 |
| ATTATAGACAACTCTTTTTCTAAACTATTTTATTTT [CACACA_negctrl_site1754] | 6.97 |
| CATAATATTTGTGAAAGTACTTATTTTACAATAGGG [XGTACX_site5004] | 6.91 |
| TTTCTTAAAATATAAAGTACTAAAATGAAAATATAT [XGTACX_site2173] | 7.13 |
| AAATAAAGAAATATATGTACATATATATATATATAT [XGTACX_site5131] | 9.76 |
| TTTTCTATAAGATTTGCACACAACTTATTCTATTAA [CACACA_site3752] | 7.21 |
| ATAAATAAATAAATAAATATATATATGAAATAATGT [TGCATGCA_negctrl_site12] | 7.09 |
| CTTCTTTTGTGATAAAGTACAAATATTTTGAAATAT [XGTACX_site1156] | 7.44 |
| AAAAAATATAAAACGAGTACATATATAATAAGCAAA [XGTACX_site1360] | 7.23 |
| CATTGACCATTAATTTGTACACAAGGGGAAATGAGG [XGTACX_site1756] | 7.18 |
| TATATATATATATATATATATATATATATATATATT [CACACA_negctrl_site1440] | 9.26 |
